PubChem BioAssay (NCATS)
“And” between values parts separate entries of the source, which are not always exact repeats. Equal values may be shown once. The shares of active, inactive and inconclusive entries below differ from those in the screen. For some of these results: Where the call is inconclusive, the potency comes from a doubtful curve fit. For some of these results: A note “side channel” means that the fit belongs to a control or component signal, not to the main read-out. The source made the active and inactive calls. Unless noted, the call rests on the fitted dose curve; in most records, active means well fitted curve in the direction sought with a large enough effect; inconclusive means small, poorly fitted or top-dose-only effect, or another doubt; inactive means no such curve, though single readings can be large; an effect the other way counts as inactive or inconclusive.

What was measured:
[1] = Cell Viability - Renal Proximal Tubule (AID 545); conditions: renal proximal tubule cells viability; at 91.7 µM (top of the series), primary cells of rat origin unless noted;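 further: cells exposed to compound for 40 hours; 0% = DMSO only and -100% = 100 µM tamoxifen; nearly all actives have a fitted effect of over 40% in size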
In short: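 Rat kidney proximal tubule cells, freshly isolated; 1000 cells/well, 5 hr settle, compound 40 hr 37 °C. CellTiter-Glo 20 min RT, luminescence read. AC50 by standard Hill fit.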

[2] = MultiTox-Fluor Cytotoxicity Assay - LYMP1-003 - Live Cells (AID 962);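 further: 0% = DMSO only and full loss = 92 µM tetraoctylammonium bromide; cytotoxic hits lower the live-cell protease signal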
In short: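 LYMP1-003 lymphoblastoid cells, 2500/well in complete medium, treated 16 h at 37 C; live-cell protease cleavage of GF-AFC read by fluorescence (Ex/Em 405/510) after 60 min reagent; AC50 from Hill fits of concentration-response.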

[3] = Cell Viability - LYMP2-006 (AID 978);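 further: cells exposed to compound for 24 hours; on the % scale 0 is the no-effect control and ±100 the full control effect; nearly all actives have a fitted effect of over 60% in size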
In short: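 qHTS, 1536-well; 2500 cells/well, 5 hr 37 C; cpd 24 hr 37 C; CellTiter-Glo 30 min RT; luminescence. Tetraoctylammonium bromide pos. ctrl. AC50 via Hill eqn.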

[4] = Cell Viability - LYMP2-024 (AID 988);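 further: plate controls were DMSO only for no effect and 92 µM tetraoctylammonium bromide for full effect; nearly all actives have a fitted effect of over 60% in size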
In short: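 Human lymphoblastoid LYMP2-024 cells (2500/well) rested 5 hr, then treated with compound for 24 hr at 37 C in complete medium. Viability was measured as intracellular ATP by CellTiter-Glo luminescence. AC50 values came from Hill-equation fits.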

[5] = target: Estrogen receptor (Homo sapiens) (UniProt P03372); test: qHTS assay for small molecule antagonists of estrogen receptor alpha signaling (AID 588513; active means well fitted curve in the direction sought with a large enough effect in the signal ratio, with a control signal flat, not every such curve was filed as active; inconclusive means small, poorly fitted or top-dose-only effect, or effect the other way, or a change in a side signal; inactive means no such curve, though single readings can be large or run the other way; the % refers to the signal ratio; further: potency means the concentration at half of the fitted maximal effect; on activity, negative = inhibition: on the % scale 0 is the no-effect control and ±100 the full control effect); conditions: ER-alpha-UAS-bla HEK293, beta-lactamase ratio, antagonist mode; activity, negative = inhibition: at 76.9 µM (top of the series) unless noted
In short: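 Beta-lactamase reporter, antagonist mode, HEK 293 GripTite cells; 0.5nM E2 stimulus, 18 h, 37 C; CCF4 dye 2 h RT; fluorescence. IC50 and efficacy from Hill fits, normalized to E2 and DMSO.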

[6] = target: Bile acid receptor (Homo sapiens) (UniProt Q96RI1); test: qHTS assay for small molecule agonists of farnesoid X receptor signaling (AID 588527; calls by dose curve; further: potency means the concentration at half of the fitted maximal effect); conditions: HEK293T FXR-UAS-bla, beta-lactamase ratio, 16 h; activation: active compounds read high
In short: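 FXR-UAS-bla HEK293T cells (10% dialyzed FBS) preincubated 5-7 h at 37 C, then compounds at up to 92 uM for 16 h at 37 C. CCF4 beta-lactamase read-out after 2 h RT. Normalized to chenodeoxycholic acid (100 uM) and DMSO; Hill fit gave EC50 and efficacy.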

[7] = target: Peroxisome proliferator-activated receptor delta (Homo sapiens) (UniProt Q03181); test: qHTS assay for small molecule agonists of peroxisome proliferator-activated receptor delta signaling (AID 588534; calls by dose curve;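 further: 0% = DMSO basal wells and 100% = positive control agonist at 10 µM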); conditions: HEK293T PPARdelta-UAS-bla, beta-lactamase ratio, 18 h; activation: at 76.7 µM (top of the series)
In short: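 Cells carrying a PPAR-delta beta-lactamase reporter were treated with compounds for 18 h at 37 °C in agonist mode. CCF4 fluorescence was read after 2 h; EC50 and efficacy from Hill fits.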

[8] = target: Peroxisome proliferator-activated receptor delta (Homo sapiens) (UniProt Q03181); test: qHTS assay for small molecule antagonists of peroxisome proliferator-activated receptor delta signaling (AID 588535; active means well fitted inhibition curve with a large enough effect in the signal ratio, with a control signal flat, not every such curve was filed as active; inconclusive means small, poorly fitted or top-dose-only effect, or effect the other way, or a change in a side signal; inactive means no such curve, though single readings can be large or run the other way; the % refers to the signal ratio); conditions: HEK293T PPARd-UAS-bla, beta-lactamase FRET ratio, 18 h; activity change, negative = inhibition: at 76.7 µM (top of the series) unless noted
In short: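 Antagonist-mode beta-lactamase reporter (GeneBLAzer PPAR-delta-UAS-bla) in HEK293T cells, 2% charcoal/dextran FBS, 4000 cells/well. Compound titrations, 18 h at 37 C; CCF4 ratio read, IC50 and efficacy from Hill fits.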

[9] = target: Peroxisome proliferator-activated receptor gamma (Homo sapiens) (UniProt P37231); test: qHTS assay for small molecule antagonists of peroxisome proliferator-activated receptor gamma signaling (AID 588537; active means well fitted inhibition curve with a large enough effect in the signal ratio, with a control signal flat, not every such curve was filed as active; inconclusive means small, poorly fitted or top-dose-only effect, or effect the other way, or a change in a side signal; the % refers to the signal ratio;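 further: reporter cells co-stimulated with 50 nM rosiglitazone agonist during compound treatment; % of control where 0% means no effect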); conditions: HEK293 PPARg-UAS-bla, beta-lactamase ratio, antagonist mode; activity, negative = inhibition: at 76.8 µM (top of the series)
In short: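 PPARγ-UAS-bla HEK293 cells (3000/well) in 1% charcoal/dextran-stripped FBS are treated with compound, then stimulated with 50 nM rosiglitazone for 16 h at 37 °C. Read-out is CCF4 β-lactamase fluorescence after 2 h at RT. IC50 comes from Hill fits normalised to rosiglitazone and DMSO.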

[10] = target: Retinoic acid receptor RXR-alpha (Homo sapiens) (UniProt P19793); test: qHTS assay for small molecule agonists of retinoid X receptor alpha signaling (AID 588544; calls by dose curve;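 further: 0% = DMSO basal wells and 100% = reference agonist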); conditions: HEK293T RXRa-UAS-bla, beta-lactamase reporter, 18 h
[11] = target: Retinoic acid receptor RXR-alpha (Homo sapiens) (UniProt P19793); test: qHTS assay for small molecule antagonists of retinoid X receptor alpha signaling (AID 588546; active means well fitted inhibition curve with a large enough effect in the signal ratio, with a control signal flat, not every such curve was filed as active; inconclusive means small, poorly fitted or top-dose-only effect, or effect the other way, or a change in a side signal; inactive means no such curve, though single readings can be large or run the other way; the % refers to the signal ratio;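 further: cells stimulated with 9-cis-retinoic acid as agonist; on the % scale 0 is the no-effect control and ±100 the full control effect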); conditions: HEK293T RXRa-UAS-bla, beta-lactamase ratio, antagonist mode
In short: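 Beta-lactamase reporter inhibition, read as CCF4 fluorescence ratio (ex 405, em 460/530 nm) after 2 h at RT. HEK293T UAS-bla cells, 2500/well, were stimulated with 9-cis-RA at 500 or 100 nM final alongside test compound for 18 h at 37 C.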

[12] = target: Thyroid hormone receptor beta (Homo sapiens) (UniProt P10828); test: qHTS assay for small molecule antagonists of thyroid hormone receptor beta signaling (AID 588547; active means well fitted inhibition curve with a large enough effect in the signal ratio, with a control signal flat, not every such curve was filed as active; inconclusive means small, poorly fitted or top-dose-only effect, or effect the other way, or a change in a side signal; the % refers to the signal ratio; further: potency means the concentration at half of the fitted maximal effect); conditions: TR-UAS-bla HEK293, beta-lactamase ratio, antagonist mode, 18 h
In short: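 TR-UAS-bla GripTite HEK293 cells in 2% charcoal/dextran FBS medium; compounds 0.59 nM to 92 uM with T3 at 0.4nM final, 18 h at 37 C. Beta-lactamase read by CCF4 fluorescence (460/530 nm); Hill fits gave IC50 and efficacy.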

[13] = qHTS assay to identify small molecules that stimulate interleukin-8 (IL-8) secretion (AID 651758; active means well fitted activation curve with a large enough effect in the signal ratio; inconclusive means small, poorly fitted or top-dose-only effect, or effect the other way, or a change in a side signal; the % refers to the signal ratio; further: 0% is about no effect); conditions: HTRF ratio (665/615); activation: at 92.2 µM (top of the series)
In short: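 THP-1 cells (2000/well) exposed to compound 16 h at 37 C; secreted IL-8 then detected by HTRF with cryptate- and XL665-labelled anti-IL-8 antibody pair after 1-3 h at room temperature.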

[14] = target: Nuclear receptor ROR-gamma (Homo sapiens) (UniProt P51449); test: qHTS assay for small molecule antagonists of the retinoid-related orphan receptor gamma (ROR-gamma) signaling pathway (AID 651802);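 further: luciferase reporter luminescence driven by ROR response element; on the % scale 0 is the no-effect control and ±100 the full control effect; nearly all actives have a fitted effect of over 60% in size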
In short: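 CHO cells with TET-inducible ROR-gamma and RORE-luciferase reporter, dosed then doxycycline-induced. After 16 h at 37C, One-Glo luminescence read; decreased signal indicates antagonism.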
Tags describe the fitted curve by direction and shape or compound fluorescence and quenching.

Chain of UniProt P19793 (P19793 whole entry, looked up): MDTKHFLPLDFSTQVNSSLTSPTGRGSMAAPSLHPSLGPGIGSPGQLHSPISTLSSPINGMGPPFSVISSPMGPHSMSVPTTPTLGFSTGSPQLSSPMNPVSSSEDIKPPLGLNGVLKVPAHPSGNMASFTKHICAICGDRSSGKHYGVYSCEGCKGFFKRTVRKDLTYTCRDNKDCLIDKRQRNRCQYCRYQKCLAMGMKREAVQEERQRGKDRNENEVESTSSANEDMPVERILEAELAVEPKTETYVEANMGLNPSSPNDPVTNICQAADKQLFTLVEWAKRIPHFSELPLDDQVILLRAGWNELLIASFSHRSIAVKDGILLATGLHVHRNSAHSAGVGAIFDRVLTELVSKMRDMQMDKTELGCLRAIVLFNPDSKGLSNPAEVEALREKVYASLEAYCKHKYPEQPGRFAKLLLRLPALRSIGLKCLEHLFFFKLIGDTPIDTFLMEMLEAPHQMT
Chain of UniProt Q03181 (Q03181 whole entry, looked up): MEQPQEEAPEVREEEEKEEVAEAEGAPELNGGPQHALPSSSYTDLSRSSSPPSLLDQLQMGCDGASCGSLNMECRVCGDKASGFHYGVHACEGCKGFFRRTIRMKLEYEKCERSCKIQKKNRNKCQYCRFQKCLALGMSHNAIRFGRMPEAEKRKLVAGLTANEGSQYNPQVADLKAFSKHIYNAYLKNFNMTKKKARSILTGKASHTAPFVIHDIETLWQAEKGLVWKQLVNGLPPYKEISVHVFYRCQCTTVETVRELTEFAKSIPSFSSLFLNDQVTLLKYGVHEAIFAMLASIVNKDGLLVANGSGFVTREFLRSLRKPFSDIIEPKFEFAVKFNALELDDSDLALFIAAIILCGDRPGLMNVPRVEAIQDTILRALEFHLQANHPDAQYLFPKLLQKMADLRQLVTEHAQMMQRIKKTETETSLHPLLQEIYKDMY
Chain of UniProt P03372 (P03372 whole entry, looked up): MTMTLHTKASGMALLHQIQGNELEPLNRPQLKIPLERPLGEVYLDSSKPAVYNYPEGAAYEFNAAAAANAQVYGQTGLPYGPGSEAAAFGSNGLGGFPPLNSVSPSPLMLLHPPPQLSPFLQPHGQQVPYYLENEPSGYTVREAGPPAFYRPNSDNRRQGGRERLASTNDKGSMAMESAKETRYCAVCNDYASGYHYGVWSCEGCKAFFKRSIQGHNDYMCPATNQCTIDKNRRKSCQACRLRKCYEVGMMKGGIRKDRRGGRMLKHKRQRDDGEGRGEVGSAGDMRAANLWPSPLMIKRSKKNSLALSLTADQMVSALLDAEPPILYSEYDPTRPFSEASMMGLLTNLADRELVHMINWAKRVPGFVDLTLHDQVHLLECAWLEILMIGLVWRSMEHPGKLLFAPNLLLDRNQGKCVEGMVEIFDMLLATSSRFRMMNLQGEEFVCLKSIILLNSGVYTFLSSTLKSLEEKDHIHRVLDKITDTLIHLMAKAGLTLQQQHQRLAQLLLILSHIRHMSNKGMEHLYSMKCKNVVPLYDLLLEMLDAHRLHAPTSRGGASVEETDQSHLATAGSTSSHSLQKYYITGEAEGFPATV
Chain of UniProt P10828 (P10828 whole entry, looked up): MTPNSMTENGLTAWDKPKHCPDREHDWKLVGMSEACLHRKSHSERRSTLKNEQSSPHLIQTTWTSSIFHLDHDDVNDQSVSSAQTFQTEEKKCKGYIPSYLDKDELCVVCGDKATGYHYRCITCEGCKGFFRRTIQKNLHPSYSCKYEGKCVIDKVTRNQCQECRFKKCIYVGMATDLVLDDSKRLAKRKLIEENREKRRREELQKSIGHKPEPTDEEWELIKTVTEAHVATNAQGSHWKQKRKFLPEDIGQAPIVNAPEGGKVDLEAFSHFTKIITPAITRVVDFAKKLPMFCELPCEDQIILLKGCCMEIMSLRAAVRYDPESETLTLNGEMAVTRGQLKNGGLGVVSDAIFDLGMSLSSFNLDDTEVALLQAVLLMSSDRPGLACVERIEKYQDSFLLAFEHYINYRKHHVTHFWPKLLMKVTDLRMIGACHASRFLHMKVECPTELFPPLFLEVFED
Chain of UniProt P51449 (P51449 whole entry, looked up): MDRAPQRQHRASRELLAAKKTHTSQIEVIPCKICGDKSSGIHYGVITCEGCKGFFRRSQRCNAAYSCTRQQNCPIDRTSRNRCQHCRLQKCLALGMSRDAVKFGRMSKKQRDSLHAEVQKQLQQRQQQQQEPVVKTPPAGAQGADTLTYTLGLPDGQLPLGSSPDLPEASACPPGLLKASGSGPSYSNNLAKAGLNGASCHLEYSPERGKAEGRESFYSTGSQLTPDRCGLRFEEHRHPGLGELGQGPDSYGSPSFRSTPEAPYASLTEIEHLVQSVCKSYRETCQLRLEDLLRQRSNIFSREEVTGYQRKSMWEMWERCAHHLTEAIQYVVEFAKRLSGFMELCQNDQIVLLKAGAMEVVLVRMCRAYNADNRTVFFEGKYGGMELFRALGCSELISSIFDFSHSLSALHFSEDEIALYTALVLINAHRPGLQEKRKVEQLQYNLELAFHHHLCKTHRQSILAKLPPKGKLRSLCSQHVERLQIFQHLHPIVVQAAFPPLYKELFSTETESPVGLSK

C1CC2OC2CC1C1CO1 (stereo unspecified)
inactive: activity change, negative = cytotoxicity [1] -2.53% [at 91.7 µM] | Potency [2] | Potency [3] | Potency [4] | Potency [7] | activation ([10]; at 76.7 µM (top of the series)) 4.51% | max response [11] 10.1% and -3.3% | Potency [13] | Potency [14]
inconclusive: Potency [5] 79400 nM [falling, single point] | activity, negative = inhibition [5] -14.5% | Potency [6] 10 nM [side channel, falling, full curve, poor fit] | activity change, negative = inhibition [8] 23% | activity, negative = inhibition [9] 13.5% | activation ([10]; activation: at 76.7 µM (top of the series) unless noted) -1.14% | Potency [12] 282 nM [cytotoxic, side channel, full curve, poor fit]
